Laboratory results published in paper PMC9750858, “Rapid biosensor development using plant hormone receptors as reprogrammable scaffolds” (Nature Biotechnology, 2022).

Molecular target: T1, wild-type PYR1 (Arabidopsis thaliana, UniProt O49686)
T1 sequence (O49686 1-191): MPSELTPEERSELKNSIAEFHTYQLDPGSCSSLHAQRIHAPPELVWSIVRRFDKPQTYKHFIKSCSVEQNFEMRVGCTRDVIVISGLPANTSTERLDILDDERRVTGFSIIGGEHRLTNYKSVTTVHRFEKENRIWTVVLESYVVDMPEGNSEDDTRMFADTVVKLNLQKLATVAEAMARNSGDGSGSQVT
T1 sequence (Q9CAJ0 23-511 partner): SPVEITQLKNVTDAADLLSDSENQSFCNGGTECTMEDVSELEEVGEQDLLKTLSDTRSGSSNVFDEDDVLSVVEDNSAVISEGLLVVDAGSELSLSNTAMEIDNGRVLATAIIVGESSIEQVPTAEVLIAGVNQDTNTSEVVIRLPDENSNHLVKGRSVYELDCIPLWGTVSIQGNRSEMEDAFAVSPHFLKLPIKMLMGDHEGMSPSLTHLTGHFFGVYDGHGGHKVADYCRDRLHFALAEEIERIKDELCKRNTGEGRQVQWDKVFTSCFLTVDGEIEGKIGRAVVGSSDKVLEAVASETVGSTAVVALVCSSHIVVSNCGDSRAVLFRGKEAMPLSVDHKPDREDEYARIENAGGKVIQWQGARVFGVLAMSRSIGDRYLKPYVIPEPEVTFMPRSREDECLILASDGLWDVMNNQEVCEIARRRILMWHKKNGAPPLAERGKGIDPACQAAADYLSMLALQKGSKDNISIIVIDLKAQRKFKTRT
Conditions: cannabinoids 25 µM, organophosphates 100 µM

Row | SMILES | response of wild-type PYR1 to ligand
1 | CCOP(=O)(OCC)OC(=CCl)c1ccc(Cl)cc1Cl [Chlorfenvinphos, chlorfenvinphos] | none of which activated wild-type PYR1
2 | CNC(=O)/C=C(\C)OP(=O)(OC)OC [monocrotophos] | none of which activated wild-type PYR1
3 | CCN(CC)c1nc(C)cc(OP(=S)(OC)OC)n1 [Pirimiphos-methyl, pirimiphos-methyl] | none of which activated wild-type PYR1
4 | COP(=S)(OC)Oc1ccc([N+](=O)[O-])cc1 [Parathion-methyl, parathion-methyl] | none of which activated wild-type PYR1
5 | CNC(=O)CSP(=S)(OC)OC [Dimethoate, dimethoate] | none of which activated wild-type PYR1
6 | CCOP(=S)(OCC)SCCSCC [Disulfoton, disulfoton] | none of which activated wild-type PYR1
7 | CCOP(=S)(OCC)SCn1nnc2ccccc2c1=O [Azinphos-ethyl, azinphos-ethyl] | none of which activated wild-type PYR1
8 | CCOP(=S)(OCC)Oc1cc(C)nc(C(C)C)n1 [Diazinon, diazinon] | none of which activated wild-type PYR1
9 | COP(=S)(OC)Oc1cc(Cl)c(Br)cc1Cl [bromophos, bromophos-methyl] | none of which activated wild-type PYR1
10 | CCOC(=O)CC(SP(=S)(OC)OC)C(=O)OCC (stereo not shown) [malathion] | none of which activated wild-type PYR1
